Measured values: the supplement of paper PMC3334620
Over roughly 33,000 sequences, “E-score (-0.5 to 0.5)” has its median near -0.054; the highest 2% begin near 0.39. The list shows a part of the results.

Molecular target: Ylr278c (UniProt Q05854)
Experiment: PBM E-score (8-mer binding enrichment) (E-score (-0.5 to 0.5)); higher = stronger / more preferred TF binding; most listed sequences are background and not binding sites
Details: protein concentration: 200 nM; construct: GST-DNA-binding domain
Procedure, shortened: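 Masliner-normalised scans of fluorescent anti-GST signal were the basis for scoring. That signal came from GST-tagged yeast transcription factors applied at about 100-200 nM to double-stranded universal all-10-mer Agilent arrays on fresh or once-stripped slides. Each ungapped eight-base word, pooled with its reverse complement, received an E-score from the Universal PBM Analysis Suite.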

Sequence | PBM E-score
ACAAAAGC | 0.00138
ATGATACC | -0.0306
AACGCTGC | -0.0726
TATCAATA | -0.26
AACCACAC | 0.00031
ATTGGAAA | -0.119
AGTAAAAT | -0.0219
GCCTAACA | -0.038
CAATGCAA | -0.171
GTACCTTA | 0.00273
CGGAGACC | 0.406
CTGACAGA | 0.0452
CTATTAAG | -0.195
AGCCGCCA | 0.143
TCACGGAA | 0.324
AAGCATCC | 0.025
CGGGCTCA | 0.109
GTGTTACA | 0.034
GACGACAA | 0.149
AAACGCTA | -0.297
AGGCGATA | -0.0436
GCCGTAGC | 0.0362
CGTCAGAG | -0.202
GGGCCTAC | -0.138
CACTGGCG | -0.253

Sequence | PBM E-score
ATGTCCCG | 0.319
GCACCACC | 0.0569
CCTACAAA | -0.0722
ACTGTGCT | -0.207
ACCCGAGA | 0.16
AGACCCGG | 0.292
CGGTGAGA | 0.0291
CAATACAC | -0.124
CGCCATAC | -0.0741
CCGAAGTA | 0.304
AGTTTTAT | 0.0328
TAGAAGAA | -0.0317
AATCAACT | -0.0329
CAAATAAC | -0.0321
AACCATTC | -0.055
CAATGCCA | -0.0649
CGTTCTTA | 0.0705
ACATCGCC | 0.152
CGACATAG | -0.201
TGGCATAA | -0.0936
TCCTGCAA | -0.143
CGTACGCA | -0.00823
GGGGCGAC | 0.00382
TGACTGCA | -0.293
CTGGAGAC | -0.222

Sequence | PBM E-score
AAAGGACG | -0.22
AAAAATTG | 0.022
TGCATCAA | -0.153
ATATAAAG | 0.0298
GGCGCATA | 0.0769
CAAGACCG | 0.248
ACTGCCTC | -0.05
CATGAGAC | -0.103
CTCTGAAG | -0.169
ATCATCCA | -0.183
TGGCCTAA | -0.206
AACCGTCT | -0.151
CACATCGC | 0.0217
AAAACGTC | -0.189
AAAGCCAC | -0.0974
AGGCCCGC | 0.169
GTCAAAAC | 0.0952
GATAGTAA | 0.0249
TATGTACA | -0.123
CCCACTAG | -0.143
GTGAGCTA | -0.185
CGTAAGCC | -0.00437
GTAGGTGA | -0.135
TCAGATGA | -0.109
AGTAATAG | -0.18

Sequence | PBM E-score
CGATGGCC | 0.049
CTCGACTA | -0.158
AGGGGCCA | -0.124
CAGGGCAC | -0.1
GCAGTACC | -0.0729
ATCTGTAG | -0.138
TACACGGA | 0.254
GCCACAGC | -0.111
AACTCAAA | -0.0947
AAGCGACG | 0.131
TATCTAAA | 0.0511
AAAAAGCC | 0.263
AGATTGTA | -0.172
GGTTTCGA | 0.0806
ATGGGGAG | -0.195
CCGGTAAG | 0.337
GCGCTCTA | -0.0491
TAACGCGA | -0.0778
GATCGCGA | 0.155
CTGTACAA | 0.0584
TACGGAGA | 0.386
TGACGAAA | -0.129
TAGACACA | -0.187
AGTTGTCA | -0.0457
TCTATCCA | -0.0603

Sequence | PBM E-score
ACTTATCA | -0.135
ATAAGGGG | -0.0334
TAATGCCA | -0.0442
GCCTCAAC | -0.245
ACTTCCTG | -0.0794
GAATCAAA | -0.0169
ATACTTAC | -0.101
CGATGCAG | -0.016
AAGAAGAA | -0.0393
GCGATATA | 0.00114
ATGTCGCA | -0.0728
CAGAGGGA | -0.166
CGGAACAC | 0.353
AGTCGTTG | -0.245
ATACGCGC | -0.055
CCTACCGC | -0.0389
AGGTGTTC | -0.252
CAGGGGGG | -0.265
AGCTATTG | -0.161
TGCATTAA | -0.0658
TCTTACCA | -0.21
AGGGACGA | -0.121
CAAGTAGA | 0.0185
CCGGCAAC | 0.32
CTAGGAAA | -0.148

Sequence | PBM E-score
ATGACTGG | -0.052
CCGTCCCG | 0.348
GAGCTATC | 0.117
CCTTATGC | -0.104
GCGGCGGA | 0.453
GAGATGGC | 0.155
GTCCAGAA | -0.00598
CGTCACCC | -0.0058
CATAGCGA | -0.136
GTCCCTGA | -0.259
AGGTGGGG | -0.151
CACAGTTC | 0.0283
CACTTTCG | 0.0954
AAAATGGC | 0.0152
GAACGAAC | 0.0162
AAAGTCCA | -0.0593
AGCCTGGA | -0.106
AATCCCTA | -0.0752
AGGGCTAG | -0.18
ACTATCCT | -0.00288
CTCAACTA | -0.0326
AGGGTCAG | -0.247
AGACAGAC | 0.00495
GTAGACTA | -0.136
ATATAGAA | -0.126

Sequence | PBM E-score
AGTCGAGG | -0.101
TAATAGAA | -0.144
ACTTACCA | -0.0445
CCTTGGGA | -0.0166
ACCCCGAC | 0.39
CGGGCTAA | 0.178
CATAGTGG | -0.107
AGAAGCAG | -0.198
CTCTGGTA | -0.213
AGCCGTGG | -0.0605
ACAAGGTG | -0.0704
GACGAGGA | -0.176
TATCGCGA | 0.115
ACCAACTG | -0.117
AGATCGTC | -0.267
AGGCCGAA | 0.243
GACATTAC | 0.0872
GGCGATAA | 0.156
CACATCCC | -0.00189
ATGATGAA | -0.0355
ATTTAGCC | 0.0701
CCATTTAC | 0.0821
